{"source": "paper PMC9911399", "about": "“Two distinct binding modes provide the RNA-binding protein RbFox with extraordinary sequence specificity”", "binders": {"B1": {"name": "AAAGAGA (DNA:RNA)", "RNA": "GGGAGACCGGAAUUCAGAUUGUCCAAAGAGAUUAAAUCCCGUCGUAGCCACCA", "DNA 1": "CAATCTGAATTCCGGTCTCCC", "DNA 2": "TGGTGGCTACGACGGGATT"}, "B2": {"name": "GCAAAAA (DNA:RNA)", "RNA": "B1 RNA with A25G, A26C, G28A, G30A", "DNA 1": "CAATCTGAATTCCGGTCTCCC", "DNA 2": "TGGTGGCTACGACGGGATT"}, "B3": {"name": "AAUAUUA (DNA:RNA)", "RNA": "B1 RNA with A27U, G28A, A29U, G30U", "DNA 1": "CAATCTGAATTCCGGTCTCCC", "DNA 2": "TGGTGGCTACGACGGGATT"}, "B4": {"name": "CAGUGCU (DNA:RNA)", "RNA": "B1 RNA with A25C, A27G, G28U, A29G, G30C, A31U", "DNA 1": "CAATCTGAATTCCGGTCTCCC", "DNA 2": "TGGTGGCTACGACGGGATT"}, "B5": {"name": "CCGGGUA (DNA:RNA)", "RNA": "B1 RNA with A25C, A26C, A27G, A29G, G30U", "DNA 1": "CAATCTGAATTCCGGTCTCCC", "DNA 2": "TGGTGGCTACGACGGGATT"}, "B6": {"name": "GACGAUU (DNA:RNA)", "RNA": "B1 RNA with A25G, A27C, G30U, A31U", "DNA 1": "CAATCTGAATTCCGGTCTCCC", "DNA 2": "TGGTGGCTACGACGGGATT"}, "B7": {"name": "AUGUUCC (DNA:RNA)", "RNA": "B1 RNA with A26U, A27G, G28U, A29U, G30C, A31C", "DNA 1": "CAATCTGAATTCCGGTCTCCC", "DNA 2": "TGGTGGCTACGACGGGATT"}, "B8": {"name": "ACAUGAG (DNA:RNA)", "RNA": "B1 RNA with A26C, G28U, A29G, G30A, A31G", "DNA 1": "CAATCTGAATTCCGGTCTCCC", "DNA 2": "TGGTGGCTACGACGGGATT"}, "B9": {"name": "AAUAAAU (DNA:RNA)", "RNA": "B1 RNA with A27U, G28A, G30A, A31U", "DNA 1": "CAATCTGAATTCCGGTCTCCC", "DNA 2": "TGGTGGCTACGACGGGATT"}, "B10": {"name": "GAGGUGG (DNA:RNA)", "RNA": "B1 RNA with A25G, A27G, A29U, A31G", "DNA 1": "CAATCTGAATTCCGGTCTCCC", "DNA 2": "TGGTGGCTACGACGGGATT"}, "B11": {"name": "ACUGCAU (DNA:RNA)", "RNA": "B1 RNA with A26C, A27U, A29C, G30A, A31U", "DNA 1": "CAATCTGAATTCCGGTCTCCC", "DNA 2": "TGGTGGCTACGACGGGATT"}, "B12": {"name": "AUAAAGU (DNA:RNA)", "RNA": "B1 RNA with A26U, G28A, A31U", "DNA 1": "CAATCTGAATTCCGGTCTCCC", "DNA 2": "TGGTGGCTACGACGGGATT"}, "B13": {"name": "UCACCUG (DNA:RNA)", "RNA": "B1 RNA with A25U, A26C, G28C, A29C, G30U, A31G", "DNA 1": "CAATCTGAATTCCGGTCTCCC", "DNA 2": "TGGTGGCTACGACGGGATT"}, "B14": {"name": "CAGCGCG (DNA:RNA)", "RNA": "B1 RNA with A25C, A27G, G28C, A29G, G30C, A31G", "DNA 1": "CAATCTGAATTCCGGTCTCCC", "DNA 2": "TGGTGGCTACGACGGGATT"}, "B15": {"name": "GUCGCAU (DNA:RNA)", "RNA": "B1 RNA with A25G, A26U, A27C, A29C, G30A, A31U", "DNA 1": "CAATCTGAATTCCGGTCTCCC", "DNA 2": "TGGTGGCTACGACGGGATT"}, "B16": {"name": "AGCCUCA (DNA:RNA)", "RNA": "B1 RNA with A26G, A27C, G28C, A29U, G30C", "DNA 1": "CAATCTGAATTCCGGTCTCCC", "DNA 2": "TGGTGGCTACGACGGGATT"}, "B17": {"name": "GGCAGUU (DNA:RNA)", "RNA": "GGGAGACCGGAAUUCAGAUUGUCCGGCAGUUUUAAAUCCCGUCGUAGCCACCA", "DNA 1": "CAATCTGAATTCCGGTCTCCC", "DNA 2": "TGGTGGCTACGACGGGATT"}, "B18": {"name": "AAGUUCU (DNA:RNA)", "RNA": "B1 RNA with A27G, G28U, A29U, G30C, A31U", "DNA 1": "CAATCTGAATTCCGGTCTCCC", "DNA 2": "TGGTGGCTACGACGGGATT"}, "B19": {"name": "ACACUCA (DNA:RNA)", "RNA": "B1 RNA with A26C, G28C, A29U, G30C", "DNA 1": "CAATCTGAATTCCGGTCTCCC", "DNA 2": "TGGTGGCTACGACGGGATT"}, "B20": {"name": "AAGAUGU (DNA:RNA)", "RNA": "B1 RNA with A27G, G28A, A29U, A31U", "DNA 1": "CAATCTGAATTCCGGTCTCCC", "DNA 2": "TGGTGGCTACGACGGGATT"}}, "note": "Residue numbers refer to the chain shown, from its start. Some of the results follow.", "data": [{"molecular_target": "T1, RBFOX1 RRM RbFoxmut (Fox-RRM*) (Homo sapiens, UniProt Q9NWB1 109-208, R118D;E147R;N151S;E152T)", "T1 sequence": "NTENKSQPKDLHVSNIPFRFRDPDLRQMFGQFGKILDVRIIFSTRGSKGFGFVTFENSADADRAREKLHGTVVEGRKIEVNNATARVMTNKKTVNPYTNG", "assay": "EMSA; HiTS-Eq, 1 nM pool, 10 min; buffer printed only for the single-RNA assays: 10 mM Tris pH 7.5, 150 mM NaCl, 3.4 mM EDTA, 0.001% NP-40, 30 C", "conditions": "tags: His6 N-terminal (pET28a); label: 5' 32P", "summary_of_the_method": "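Purified RbFox RRM (wild type or mutant) was equilibrated for 10 min in 50 µL with 1 nM of a 5′-radiolabelled pool of RNA with 7 randomized nucleotides, its flanks annealed to DNA oligonucleotides, across increasing protein concentrations. Free RNA was separated by 8% native PAGE, excised, reverse-transcribed, PCR-barcoded and sequenced on an Illumina HiSeq 2500. Relative association constants came from read-count changes of each variant against the control reaction, normalised to the cognate motif.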", "values": [{"binder": "B1", "binding signal": "0.0972 KA relative to UGCAUGU"}, {"binder": "B2", "binding signal": "0.0956 KA relative to UGCAUGU"}, {"binder": "B3", "binding signal": "0.134 KA relative to UGCAUGU"}, {"binder": "B4", "binding signal": "0.113 KA relative to UGCAUGU"}, {"binder": "B5", "binding signal": "0.146 KA relative to UGCAUGU"}, {"binder": "B6", "binding signal": "0.063 KA relative to UGCAUGU"}, {"binder": "B7", "binding signal": "0.091 KA relative to UGCAUGU"}, {"binder": "B8", "binding signal": "0.117 KA relative to UGCAUGU"}, {"binder": "B9", "binding signal": "0.0355 KA relative to UGCAUGU"}, {"binder": "B10", "binding signal": "0.0993 KA relative to UGCAUGU"}, {"binder": "B11", "binding signal": "0.13 KA relative to UGCAUGU"}, {"binder": "B12", "binding signal": "0.114 KA relative to UGCAUGU"}, {"binder": "B13", "binding signal": "0.0853 KA relative to UGCAUGU"}, {"binder": "B14", "binding signal": "0.155 KA relative to UGCAUGU"}, {"binder": "B15", "binding signal": "0.131 KA relative to UGCAUGU"}, {"binder": "B16", "binding signal": "0.103 KA relative to UGCAUGU"}, {"binder": "B17", "binding signal": "0.0703 KA relative to UGCAUGU"}, {"binder": "B18", "binding signal": "0.0763 KA relative to UGCAUGU"}, {"binder": "B19", "binding signal": "0.0689 KA relative to UGCAUGU"}, {"binder": "B20", "binding signal": "0.113 KA relative to UGCAUGU"}]}]}
